This is an account of results in patent US7196085B2, “Phthalazinone derivatives” (KuDOS Pharmaceuticals Limited, priority 2002, dated 2007).

For the first test, the target named is Mammalian PARP, isolated from Hela cell nuclear extract (Homo sapiens, UniProt P09874). The test is described as follows: PARP inhibition assay (FlashPlate, 3H-NAD incorporation). The class given is biochemical.
Sequence of UniProt P09874 (P09874 whole entry): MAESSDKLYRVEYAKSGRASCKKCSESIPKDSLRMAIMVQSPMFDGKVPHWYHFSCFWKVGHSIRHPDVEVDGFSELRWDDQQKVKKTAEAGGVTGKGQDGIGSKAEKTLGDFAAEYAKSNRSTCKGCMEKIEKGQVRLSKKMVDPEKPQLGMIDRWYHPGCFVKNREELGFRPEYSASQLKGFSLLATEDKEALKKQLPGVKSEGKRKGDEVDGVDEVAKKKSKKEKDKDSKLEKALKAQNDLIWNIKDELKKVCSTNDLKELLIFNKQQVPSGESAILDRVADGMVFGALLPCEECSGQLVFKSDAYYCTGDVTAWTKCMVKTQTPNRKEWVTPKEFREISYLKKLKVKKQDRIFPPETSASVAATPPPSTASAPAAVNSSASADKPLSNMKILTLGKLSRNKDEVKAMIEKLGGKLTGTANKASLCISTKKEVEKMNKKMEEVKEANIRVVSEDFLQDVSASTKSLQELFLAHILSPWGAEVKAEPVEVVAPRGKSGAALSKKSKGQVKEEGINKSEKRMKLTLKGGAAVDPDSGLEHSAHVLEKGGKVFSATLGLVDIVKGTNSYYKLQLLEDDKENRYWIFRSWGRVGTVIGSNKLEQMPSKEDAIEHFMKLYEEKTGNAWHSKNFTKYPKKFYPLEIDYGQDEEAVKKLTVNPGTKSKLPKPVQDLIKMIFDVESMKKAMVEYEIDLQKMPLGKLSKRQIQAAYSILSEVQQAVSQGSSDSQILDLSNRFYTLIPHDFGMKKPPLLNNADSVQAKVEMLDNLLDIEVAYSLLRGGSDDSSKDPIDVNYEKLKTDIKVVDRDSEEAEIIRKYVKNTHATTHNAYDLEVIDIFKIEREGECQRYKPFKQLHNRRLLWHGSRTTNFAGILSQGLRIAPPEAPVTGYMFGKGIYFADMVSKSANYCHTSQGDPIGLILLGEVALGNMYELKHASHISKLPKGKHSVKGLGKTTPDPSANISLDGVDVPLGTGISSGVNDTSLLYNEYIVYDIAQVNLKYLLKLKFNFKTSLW
Conditions: not given
Here is the method: In order to assess the inhibitory action of the compounds, the following assay was used to determine IC50 values.
The total assay volume per well was 40 μl.
After 10 minutes incubation at 30° C. the reactions were initiated by the addition of a 10 μl reaction mixture, containing NAD (5 μM), ^3H-NAD and 30 mer double stranded DNA-oligos. Designated positive and negative reaction wells were done in combination with compound wells (unknowns) in order to calculate % enzyme activities. The plates were then shaken for 2 minutes and incubated at 30° C. for 45 minutes.
Following the incubation, the reactions were quenched by the addition of 50 μl 30% acetic acid to each well. The plates were then shaken for 1 hour at room temperature.
The plates were transferred to a TopCount NXT (TRADE MARK) (Packard, UK) for scintillation counting. Values recorded are counts per minute (cpm) following a 30 second counting of each well.
The % enzyme activity for each compound is then calculated using the following equation: […]
Such IC50 values are used as comparative values to identify increased compound potencies.
As to `O=C1CCC(=O)N1c1cc(Cc2n[nH]c(=O)c3ccccc23)ccc1F` [Example 23, 1-[2-fluoro-5-(4-oxo-3,4-dihydrophalazin-1-ylmethyl)phenyl]pyrrolidine-2,5-dione], the IC50 is less than 0.03 µM.

The same test, now with this note: NAD 5 μM, 30° C., 45 minutes; compound 10 to 0.01 μM; read-out: IC50 (concentration at which 50% of the enzyme activity is inhibited).
As to `CCC/C=C/CC1CC(=O)N(c2cc(Cc3n[nH]c(=O)c4ccccc34)ccc2F)C1=O` (centres unmarked) [Example 29, 1-[2-fluoro-5-(4-oxo-3,4-dihydrophthalazin-1-ylmethyl)phenyl]-3-hex-2-enylpyrrolidine-2,5-dione], the IC50 was less than 0.03 µM. The same measure, in the same setting: to `O=C1C=C(c2ccccc2)C(=O)N1c1cccc(Cc2n[nH]c(=O)c3ccccc23)c1` [Example 7, 1-[3-(4-oxo-3,4-dihydrophthalazin-1ylmethyl)phenyl]-3-phenylpyrrole-2,5-dione] belongs less than 0.03 µM; to `COc1ccc(Cc2n[nH]c(=O)c3ccccc23)cc1N1C(=O)CCC1=O` [Example 43, 1-[2-methoxy-5-(4-oxo-3,4-dihydrophalazin-1-ylmethyl)phenyl]pyrrolidine-2,5-dione], less than 0.03 µM.

Turning to `O=C1CC(c2ccccc2)C(=O)N1c1cc(Cc2n[nH]c(=O)c3ccccc23)ccc1Cl` (centres unmarked) [Example 39, 1-[2-chloro-5-(4-oxo-3,4-dihydrophalazin-1-ylmethyl)phenyl]-3-phenylpyrrolidine-2,5-dione], the IC50 is less than 0.03 µM. Still for that read-out and setting: to `O=C1C2CC2C(=O)N1c1cc(Cc2n[nH]c(=O)c3ccccc23)ccc1Cl` (centres unmarked) [Example 41, 3-[2-chloro-5-(4-oxo-3,4-dihydrophthalazin-1-ylmethyl)phenyl]-3-azabicyclo[3.1.0]hexane-2,4-dione] belongs less than 0.03 µM; to `CC1CC(=O)N(c2cccc(Cc3n[nH]c(=O)c4ccccc34)c2)C1=O` (centres unmarked) [Example 20, 3-methyl-1-[3-(4-oxo-3,4-dihydrophthalazin-1-ylmethyl)phenyl]pyrrolidine-2,5-dione], less than 0.03 µM. Still for that read-out and setting: the value for `O=C1C2CCCCC2C(=O)N1c1cccc(Cc2n[nH]c(=O)c3ccccc23)c1` (centres unmarked) [Example 5, 2-[3-(4-oxo-3,4-dihydrophthalazin-1-ylmethyl)phenyl]-3a,4,5,6,7,7a-hexahydroisoindole-1,3-dione] was less than 0.03 µM; that for `O=C1CC2(CCCC2)C(=O)N1c1cc(Cc2n[nH]c(=O)c3ccccc23)ccc1F` [Example 32, 2-[2-fluoro-5-(4-oxo-3,4-dihydrophthalazin-1-ylmethyl)phenyl]-2-azaspiro[4.4]nonane-1,3-dione] was less than 0.03 µM; that for `O=C1CC(Cc2ccccc2)C(=O)N1c1cc(Cc2n[nH]c(=O)c3ccccc23)ccc1F` (centres unmarked) [Example 33, 3-benzyl-1-[2-fluoro-5-(4-oxo-3,4-dihydrophthalazin-1-ylmethyl)phenyl]pyrrolidine-2,5-dione] was less than 0.03 µM.

`O=C1C2CC2C(=O)N1c1cccc(Cc2n[nH]c(=O)c3ccccc23)c1` (centres unmarked) [Example 18, 3-[3-(4-oxo-3,4-dihydrophthalazin-1-ylmethyl)phenyl]-3-azabicyclo[3.1.0]hexane-2,4-dione]: the IC50 is less than 0.03 µM. With `O=C1CCCC(=O)N1c1cc(Cc2n[nH]c(=O)c3ccccc23)ccc1Cl` [Example 42, 1-[2-chloro-5-(4-oxo-3,4-dihydrophalazin-1-ylmethyl)phenyl]piperidine-2,5-dione], the IC50 was less than 0.03 µM.

In the case of `CCCCCC/C=C/CC1CC(=O)N(c2cc(Cc3n[nH]c(=O)c4ccccc34)ccc2F)C1=O` (centres unmarked) [Example 30, 1-[2-Fluoro-5-(4-oxo-3,4-dihydrophthalazin-1-ylmethyl)phenyl]-3-non-2-enylpyrrolidine-2,5-dione], the IC50 was less than 0.03 µM. On the same count and under the same terms, to `CCCCC/C=C/CC1CC(=O)N(c2cc(Cc3n[nH]c(=O)c4ccccc34)ccc2F)C1=O` (centres unmarked) [Example 28, 1-[2-fluoro-5-(4-oxo-3,4-dihydrophthalazin-1-ylmethyl)phenyl]-3-oct-2-enylpyrrolidine-2,5-dione] belongs less than 0.03 µM; to `O=C1CN(Cc2ccccc2)CC(=O)N1c1cc(Cc2n[nH]c(=O)c3ccccc23)ccc1F` [Example 31, 4-benzyl-1-[2-fluoro-5-(4-oxo-3,4-dihydrophthalazin-1-ylmethyl)phenyl]piperazine-2,6-dione], less than 0.03 µM; to `O=C1C2CCC2C(=O)N1c1cccc(Cc2n[nH]c(=O)c3ccccc23)c1` (centres unmarked) [Example 13, 3-[3-(4-oxo-3,4-dihydrophthalazin-1-ylmethyl)phenyl]-3-azabicyclo[3.2.0]heptane-2,4-dione], less than 0.03 µM. Still for that read-out and setting: to `O=c1[nH]ncc2ccccc12` [Example 100, 1(2H)-phthalazinone, reference compound] belongs 7.2 µM; to `O=C1CNCC(=O)N1c1cc(Cc2n[nH]c(=O)c3ccccc23)ccc1F` [Example 37, 1-[2-fluoro-5-(4-oxo-3,4-dihydrophthalazin-1-ylmethyl)phenyl]piperazine-2,6-dione], less than 0.03 µM; to `O=C(N[C@H]1CC(=O)N(c2cc(Cc3n[nH]c(=O)c4ccccc34)ccc2F)C1=O)OCc1ccccc1` [Example 35, (S)-3-benzyloxycarbonylamino-1-[2-fluoro-5-(4-oxo-3,4-dihydrophthalazin-1-ylmethyl)phenyl]pyrrolidine-2,5-dione], less than 0.03 µM. For the compound `CC1=CC(=O)N(c2cccc(Cc3n[nH]c(=O)c4ccccc34)c2)C1=O` [Example 3, 3-methyl-1-[3-(4oxo-3,4-dihydrophthalazin-1-ylmethyl)phenyl]pyrrole-2,5-dione], the IC50 was less than 0.03 µM.

As to `O=C1CC(c2ccccc2)C(=O)N1c1cccc(Cc2n[nH]c(=O)c3ccccc23)c1` (centres unmarked) [Example 15, 1-[3-(4-oxo-3,4-dihydrophthalazin-1-ylmethyl)phenyl]-3-phenylpyrrolidine-2,5-dione], the IC50 was less than 0.03 µM. On the same count and under the same terms, the value for `CC1=C(C)C(=O)N(c2cccc(Cc3n[nH]c(=O)c4ccccc34)c2)C1=O` [Example 11, 3,4-dimethyl-1-[3-(4-oxo-3,4-dihydrophthalazin-1-ylmethyl)phenyl]pyrrole-2,5-dione] was less than 0.03 µM; that for `CCC/C=C/CC1CC(=O)N(c2cccc(Cc3n[nH]c(=O)c4ccccc34)c2)C1=O` (centres unmarked) [Example 19, 3-hex-2-enyl-1-[3-(4-oxo-3,4-dihydrophthalazin-1-ylmethyl)phenyl]pyrrolidine-2,5-dione] was less than 0.03 µM.
